Measured values as given in PubChem BioAssay AID1030 (National Center for Advancing Translational Sciences (NCATS), 2008).
About 16,000 (7.3%) of roughly 220,000 compounds were called active. Inconclusive results, whose numbers are uncertain, are shown with a selection of clear calls. Calls follow the shape of the dose curve; as a rule, active = well fitted inhibition curve with a large enough effect (not every such curve was filed as active); inconclusive = small, poorly fitted or top-dose-only effect, or another doubt; inactive = no such curve, though single readings can be large or run the other way. Potencies of inconclusive entries are left out as doubtful fits.

Biological target: Aldehyde dehydrogenase 1A1 (Homo sapiens) (UniProt P00352)
Sequence of UniProt P00352 (P00352 whole entry, looked up): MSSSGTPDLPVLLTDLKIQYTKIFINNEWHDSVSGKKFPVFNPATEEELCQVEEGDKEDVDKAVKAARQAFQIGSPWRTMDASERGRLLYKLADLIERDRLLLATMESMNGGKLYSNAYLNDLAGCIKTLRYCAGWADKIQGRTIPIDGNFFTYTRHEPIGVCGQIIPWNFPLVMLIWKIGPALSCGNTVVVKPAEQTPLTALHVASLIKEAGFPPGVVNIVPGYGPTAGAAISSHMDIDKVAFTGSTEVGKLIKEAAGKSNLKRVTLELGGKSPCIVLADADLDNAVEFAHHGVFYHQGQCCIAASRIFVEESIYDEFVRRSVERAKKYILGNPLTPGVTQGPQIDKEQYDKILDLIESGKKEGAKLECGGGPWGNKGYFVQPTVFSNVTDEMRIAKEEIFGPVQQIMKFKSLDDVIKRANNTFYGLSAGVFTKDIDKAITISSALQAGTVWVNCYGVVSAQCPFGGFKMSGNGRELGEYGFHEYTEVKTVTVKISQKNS
Test: qHTS Assay for Inhibitors of Aldehyde Dehydrogenase 1 (ALDH1A1);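 as to activity, negative = inhibition: plate controls were no enzyme wells and a reference inhibitor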
Settings: Purified ALDH1A1, NADH fluorescence, propionaldehyde substrate; series mostly up to 75.3 µM; activity, negative = inhibition: at the top concentration
Potency is read from the fitted curve at half-maximal effect; tags tell the direction and shape of the fitted curve.

Row | Structure (SMILES) | Potency | activity, negative = inhibition
1 | O=C(c1cc2nc(-c3ccco3)cc(C(F)(F)F)n2n1)N1CCN(c2ccccn2)CC1 | inconclusive [inhibitor, single point] | 
2 | O=S(=O)(c1cccc(F)c1)N1CCC(CO)(Cc2cccc(F)c2)CC1 |  | inactive: -7.97%
3 | CCOC(=O)N1CCN(Cc2ccccc2Cl)CC1 | inconclusive [inhibitor, single point] | 
4 | Cc1[nH]c2ccccc2c1C(=O)CCl | active: 0.251 µM | 
5 | COc1ccccc1CN1C(=O)CCC1(C)C(=O)NCc1cccnc1 (centres undefined) | inconclusive [inhibitor, single point] | 
6 | CCSc1nc2[nH]ncc2c(=O)[nH]1 |  | inactive: 10.8%
7 | O=C(CSc1nnnn1Cc1ccccc1)N1CCN(c2ccccc2)CC1 | inconclusive [inhibitor, partial curve] | 
8 | O=c1[nH]c(CN2CCN(c3ccc([N+](=O)[O-])cc3)CC2)nc2ccsc12 | inconclusive [inhibitor, single point] | 
9 | COCCn1nnnc1C(c1cc2ccc(C)cc2[nH]c1=O)N(Cc1ccco1)Cc1cccs1 (centres undefined) | active: 17.8 µM | 
10 | COc1ccc(C(=O)N2CCC[C@@]3(CCN(Cc4nccs4)C3)C2)cc1 | active: 8.91 µM | 
11 | CC1(C)Oc2ccc(C(=O)N3CCCCC3)cc2N(CC(=O)NCc2ccccc2)C1=O | inconclusive [inhibitor, single point] | 
12 | CCOC(=O)N1CCN(C(=O)c2ccc(CS(=O)(=O)c3ccccc3OC)o2)CC1 |  | inactive: -5.65%
13 | CC(=O)c1ccc(C(=O)N2CCCC(CCC(=O)N(C)CCc3ccccn3)C2)s1 (centres undefined) | inconclusive [inhibitor, single point] | 
14 | Brc1ccc(-c2csc(Nc3nc(-c4ccc(Br)cc4)cs3)n2)cc1 | inconclusive [inhibitor, single point] | 
15 | Nc1ccc2nc(-c3cc(Cl)c(N)c(Cl)c3)[nH]c2c1 | inconclusive [inhibitor, single point] | 
16 | O=c1oc2ccccc2c(Nc2ccc(F)cc2)c1[N+](=O)[O-] | inconclusive [inhibitor, single point] | 
17 | O=C(CN1CCc2ccccc2C1)NCc1ccco1 | inconclusive [inhibitor, partial curve] | 
18 | COc1ccc(CNC(=O)C(C)N=C2NS(=O)(=O)c3ccccc32)cc1OC (centres undefined) |  | inactive: 9.26%
19 | COc1cc2c(-c3ccccc3O)nc3c(c(C)nn3-c3ccccc3)c2cc1OC |  | inactive: 3.74%
20 | Cc1cc(N2CCOCC2)nc(NCc2ccccc2)n1 |  | inactive: 6.58%
21 | Cc1oc(=O)c(NC(=O)c2cccc(Cl)c2)cc1C(=O)c1ccccc1 | active: 8.91 µM | 
22 | COc1ccccc1NS(=O)(=O)c1ccc2c(c1)n(C)c(=O)n2C | inconclusive [inhibitor, partial curve] | 
23 | O=c1c(-c2cc(F)cc(F)c2)nc2cnc(N3CCOCC3)nc2n1CCc1ccccc1 | inconclusive [inhibitor, single point] | 
24 | COc1ccccc1NC(=O)C1=C(C)Nc2nnnn2C1c1cccc(C)c1 (centres undefined) | active: 14.1 µM | 
25 | O=C(CC(c1ccco1)S(=O)(=O)c1ccccc1)c1ccc(F)cc1 (centres undefined) | inconclusive [inhibitor, single point] | 

Row | Structure (SMILES) | Potency | activity, negative = inhibition
26 | CCc1ccc2c(c1)C(NC(C)=O)C(=O)N2CC (centres undefined) | active: 22.4 µM | 
27 | CCOC(=O)c1nc2nc(-c3cccs3)cc(C(F)(F)F)n2n1 | inconclusive [inhibitor, partial curve] | 
28 | O=C(c1ccc([N+](=O)[O-])cc1)N1C=CC(C(F)(F)F)=NCC1 |  | inactive: 6.53%
29 | O=C(O)c1ccc(S(=O)(=O)Nc2ccc(F)c(Cl)c2)cc1 |  | inactive: 7.1%
30 | CC(Cl)C(=O)NN=C(c1ccccc1)c1ccccc1 (centres undefined) | active: 1 µM | 
31 | N=C1C=CC=C2C1=NC1(CCCCC1)N2O | inconclusive [inhibitor, single point] | 
32 | N#Cc1ccc(/C=N/NC(=O)c2cccc(S(=O)(=O)N3CCOCC3)c2)cc1 |  | inactive: 5.68%
33 | COCCNC(=S)N1CCOCC1 |  | inactive: 6.88%
34 | O=C(CN1CCN(S(=O)(=O)c2ccccc2)CC1)Nc1cccc(C(F)(F)F)c1 | inconclusive [inhibitor, single point] | 
35 | O=c1oc2ccccc2cc1-c1cn2cccnc2n1 | inconclusive [inhibitor, partial curve] | 
36 | COc1cc(CN2C(=S)NC(C)(C)CC2(C)O)cc(OC)c1 (centres undefined) | inconclusive [inhibitor, partial curve] | 
37 | O=C(NC(=O)c1ccc(Cl)cc1)OC1CCCCC1 |  | inactive: 7.9%
38 | COCCNC(=O)/C(C#N)=C/c1ccc(N2CCOCC2)o1 | active: 31.6 µM | 
39 | O=C(c1ccc2c(c1)OCO2)C1CCCN(C(=O)Nc2ccc(F)cc2F)C1 (centres undefined) |  | inactive: -3.5%
40 | Cc1ccc2nc(-c3ccccc3N)[nH]c2c1 | inconclusive [inhibitor, partial curve] | 
41 | Cc1ccc(C)c(S(=O)(=O)N2CCN(c3ncccn3)CC2)c1 | inconclusive [inhibitor, single point] | 
42 | CC1=C(C(=O)Nc2cccc(F)c2)C(c2ccsc2)C2=C(CC(C)(C)CC2=O)N1 (centres undefined) | inconclusive [inhibitor, partial curve] | 
43 | Cc1ccccc1-n1c(SCC(N)=O)nc2sc(-c3ccccc3)cc2c1=O | inconclusive [inhibitor, single point] | 
44 | CSCC(=O)N1CCCC(CO)(Cc2ccccc2C)C1 (centres undefined) | inconclusive [inhibitor, partial curve] | 
45 | O=c1[nH][nH]c(=S)n1C1CCCCC1 | active: 1.26 µM | 
46 | COc1ccc(OC)c(NC(=O)CSc2nnc(CNc3ccc(C)cc3C)o2)c1 | inconclusive [inhibitor, single point] | 
47 | O=C(Cc1ccccc1)NC1(Cc2ccc(O)cc2)CCCCC1 |  | inactive: 1.85%
48 | COc1ccc(-c2c(C#N)c(N)nc3c2CCc2ccccc2-3)cc1OC | inconclusive [inhibitor, partial curve] | 
49 | COC(=O)c1cccc(OCC(O)Cn2ccnc2)c1 (centres undefined) |  | inactive: 0.807%
